From the supplement of paper PMC10185492
This is one part of the list. Read counts after selection give these values, which scatter widely.

system: SARS-CoV-2 3CLpro (nsp5); assay: substrate phage enrichment score (protease-eluted vs HEPES control, +1 offset) (ratio); higher = better cleaved substrate; conditions: selection round: 3; protease elution time: 0.5 h
Description: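 Random heptapeptide substrate phage display (M13 pIII fusion, heptapeptide between an N-terminal biotinylated AviTag GLNDIFEAQKIEWHE and pIII; phages immobilised on streptavidin) eluted by cleavage with 50 nM protease in 20 mM HEPES at 37 °C. Selected phages were NGS sequenced, and the enrichment score is (reads in protease sample + 1)/(reads in HEPES blank-selection control + 1).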

Row | Substance | substrate phage enrichment score
1 | QNVVGRH | 1.88
2 | CTIPQPP | > 25
3 | SAAAHHH | 0.99
4 | YAGSAAA | 5.75
5 | PCRPTNH | > 21
6 | QFSTTLQ | > 33
7 | SKTRVSQ | > 26
8 | PASTMGQ | > 141
9 | QKPNMLY | > 21
10 | QRHTTSV | 5.6
11 | CLVRIIR | 0.929
12 | IQSSTLI | 1.67
13 | FRPHIII | 1.55
14 | EHCKIQR | > 46
15 | SPSLSVQ | 4.88
16 | QMCVPTD | > 45
17 | PCFQGGS | 0.6
18 | HGAAHHH | 0.435
19 | RIFRVVV | 3.25
20 | ASRVPSA | > 21
21 | VALQSGS | > 49
22 | GNFPAQN | 1.64
23 | PYSMSAR | 2.38

Row | Substance | substrate phage enrichment score
24 | LNNHNAR | 2.25
25 | SYFQGGS | 2.36
26 | KEAAHHH | 0.979
27 | YLNHRCN | 0.917
28 | PYECTPG | 13.3
29 | TPILQAQ | 164
30 | STQPVRP | > 21
31 | PDHNLTH | 1.08
32 | NGLSQYR | 3.19
33 | TQCGATG | 9.33
34 | PCTEPLT | > 34
35 | LSGQHPC | 11
36 | ANFQGGS | 2.9
37 | TGAAHHH | 0.755
38 | SNFAAPD | > 25
39 | STSHGGR | 9
40 | RDGTSLQ | > 30
41 | YGLNYYR | 3.86
42 | LPCSRNG | 1.3
43 | QPVIERQ | > 51
44 | ALRTQLQ | 41.5
45 | HESYARF | 14
46 | PGEYVQP | 0.857

Row | Substance | substrate phage enrichment score
47 | SRINLRA | 3.5
48 | KASGTAA | 47
49 | EEETITR | 4.12
50 | TDFQGGS | 1
51 | NSYLNMP | 3.16
52 | WTQENST | > 40
53 | TRSDGET | 4
54 | SWCTVPK | > 42
55 | QATVFCH | 1.46
56 | RRPHVHT | 4.6
57 | HHVNSVD | 3
58 | LPAAHHH | 1
59 | AVGEYIN | 1
60 | MHFQGGS | 0.667
61 | YRTRLQS | > 47
62 | EQVSQLQ | > 28
63 | VWAGAPW | 4.17
64 | YSRCLLQ | > 21
65 | QLPTFVP | > 23
66 | YPAAHHH | 0.964
67 | CSEYKRY | > 98
68 | AAENMIN | > 26
69 | HAKAHKS | 0.609

Row | Substance | substrate phage enrichment score
70 | RSTQQAA | 6.5
71 | QQTLRTQ | 1.2
72 | PVQCHLQ | 5.5
73 | VNFQGGS | 2.62
74 | DSKQKAN | 6
75 | ASGQSMM | 30
76 | IPHCANG | > 21
77 | PCYAGCT | > 22
78 | LPKLQST | > 44
79 | QSFTHCR | 5.67
80 | PAGSNHV | 6.5
81 | RRWATLQ | > 21
82 | SWSSRTE | 1
83 | DQALKFW | > 40
84 | CTAAHHH | 0.774
85 | DPSKAWR | 3.43
86 | TRGEPQR | > 29
87 | GKAAHHH | 0.457
88 | ANTIKAR | 0.786
89 | GALRCRD | 0.571
90 | GDHNKAQ | 2.36
91 | NDGSVGH | 2.25
92 | YLNSKTP | > 30

Row | Substance | substrate phage enrichment score
93 | EPTQCRA | 2.28
94 | THPVASD | > 45
95 | SSAREGC | 1.33
96 | SPGSKTL | > 33
97 | IKLQSYD | > 42
98 | SPKNHMQ | > 21
99 | VNKEIVG | 1
100 | TKKTPTY | 4.75
101 | RASQVTR | 4.6
102 | LNPHLQS | > 34
103 | QSWGISQ | > 24
104 | VAKGSQD | > 26
105 | HTAAHHH | 1.77
106 | TAAAHHH | 1.06
107 | TRWCSIA | > 21
108 | ETGILQS | > 28
109 | SILECRG | > 31
110 | NGAAHHH | 1.69
111 | RQTYIYG | > 417
112 | NRGAKLQ | > 30
113 | VANLQAG | 74
114 | RDTRPVF | > 25
115 | LCTLQGG | > 28

Row | Substance | substrate phage enrichment score
116 | RADAILQ | > 201
117 | TSLTPRQ | 5.15
118 | QQTTKRG | 1.29
119 | GSPAAHH | 0.5
120 | HRCKAGF | 1.75
121 | AVDQPKQ | 1.9
122 | QTCLQGG | > 32
123 | CGAAHHH | 0.5
124 | LIDSAQR | > 27
125 | RQDSRFG | > 21
126 | QTAAHHH | 0.857
127 | SHAAHHH | 0.591
128 | LKDNSQQ | > 26
129 | AAQTFPA | 0.312
130 | LYFRGGS | 0.724
131 | TAAHHHH | 1.11
132 | SDTARGS | > 23
133 | SAAEHHH | 0.684
134 | WNHRDTR | > 30
135 | ETHGPFG | > 105
136 | RKQTRLQ | > 122
137 | SSPQKWP | 2.9
138 | SSLTGIG | 17.5

Row | Substance | substrate phage enrichment score
139 | RQPVGIP | > 23
140 | MSIHATP | 1
141 | ASTGYKS | 12
142 | TARLQSA | > 37
143 | ELSGRKH | 1
144 | QASRKSD | > 23
145 | PPGRATC | 2.14
146 | CTENRTR | 0.692
147 | VVKTGVH | > 57
148 | ARPSQLM | > 21
149 | DTLSELQ | > 28
150 | SGVPSAR | 18.5
151 | RQESVDP | > 28
152 | CASYNSS | > 22
153 | AAAHHNH | 1
154 | QQYFQGG | 0.636
155 | GTTRLQA | 156
156 | YASSSGR | 1.09
157 | SAAAHQH | 1.13
158 | YPQTRLQ | > 47
159 | AADLNNR | 1
160 | KATKPRP | 4.17
161 | QCFQGGS | 4.5

Row | Substance | substrate phage enrichment score
162 | GGAAAHH | 0.571
163 | HTDYVTE | 11
164 | RVPAKLQ | > 42
165 | RRRCSLM | 126
166 | RKSSKVC | > 21
167 | AAAQHHH | 1.17
168 | TVGGLIC | > 21
169 | CKAAHHH | 2.07
170 | ALSPPGP | > 21
171 | QRSSTPA | 0.389
172 | CRLSTRD | 2.62
173 | NRHLARP | > 34
174 | GIAAAHH | 0.5
175 | LQSFPAA | > 21
176 | AYDSEFS | 2.29
177 | LCEQQML | 2.43
178 | KQRTTSP | > 28
179 | SAAPQQH | 2.14
180 | LSSEQLL | 0.714
181 | KPKPCLH | 1.88
182 | MKPTVPE | > 50
183 | CNHRELL | 0.294
